The subject of the assay is RS4; 11 leukemia cells. The note with it: for leukemic growth (bioluminescent flux): 10 mg/kg daily tail vein injection for seven days.

Where a SMILES comes first, the peptide text is derived from it. Bridges are numbered along the chain shown (N, C = ends). [ ]: non-standard residue; d: D form. S5 = C=CCCC[C@](C)(N)C(=O)O; Nle = CCCC[C@H](N)C(=O)O

As to `CCCC[C@H](NC(=O)[C@]1(C)CCCC=CCCC[C@](C)(NC(=O)[C@H](C)NC(=O)[C@H](CC(C)C)NC(=O)[C@H](Cc2c[nH]cn2)NC(=O)[C@H](CCCNC(=N)N)NC(=O)[C@H](C)NC(=O)[C@@H](NC(=O)[C@H](CC(N)=O)NC(=O)[C@H](CCCNC(=N)N)NC(=O)[C@@H](NC(=O)[C@@H](NC(=O)[C@H](CC(=O)O)NC(=O)[C@H](CCC(=O)O)NC(C)=O)[C@@H](C)CC)[C@@H](C)CC)[C@@H](C)CC)C(=O)N[C@@H](C(C)C)C(=O)N[C@@H](CCC(=O)O)C(=O)N[C@@H](CC(=O)O)C(=O)N1)C(=O)N[C@@H](CC(=O)O)C(=O)N[C@@H](CCCNC(=N)N)C(=O)N[C@@H](CO)C(=O)N[C@H](C(=O)N[C@@H](Cc1c[nH]c2ccccc12)C(N)=O)[C@@H](C)CC` [SAHB3BID(G→E)A] (Ac-EDIIRNIARHLA[S5]VED[S5][Nle]DRSIW-NH2; staple 13-17; N-terminus assumed), the “leukemic growth (bioluminescent flux)” value is “did not exhibit tumor regression”.

On to `CCCC[C@H](NC(=O)[C@]1(C)CCCC=CCCC[C@](C)(NC(=O)[C@H](C)NC(=O)[C@H](CC(C)C)NC(=O)[C@H](Cc2c[nH]cn2)NC(=O)[C@H](CCCNC(=N)N)NC(=O)[C@H](C)NC(=O)[C@@H](NC(=O)[C@H](CC(N)=O)NC(=O)[C@H](CCCNC(=N)N)NC(=O)[C@@H](NC(=O)[C@@H](NC(=O)[C@H](CC(=O)O)NC(=O)[C@H](CCC(=O)O)NC(C)=O)[C@@H](C)CC)[C@@H](C)CC)[C@@H](C)CC)C(=O)N[C@@H](C(C)C)C(=O)NCC(=O)N[C@@H](CC(=O)O)C(=O)N1)C(=O)N[C@@H](CC(=O)O)C(=O)N[C@@H](CCCNC(=N)N)C(=O)N[C@@H](CO)C(=O)N[C@H](C(=O)N[C@@H](Cc1c[nH]c2ccccc12)C(N)=O)[C@@H](C)CC` [SAHB3BIDA], for which the “leukemic growth (bioluminescent flux)” value is on record as “tumor regression observed by day 5”. Also, where the note is “10 mg/kg daily for seven days”, the median survival is on record as 11 days.

Values taken from US8198405B2, “Stabilized alpha helical peptides and uses thereof” (Dana-Farber Cancer Institute, Inc., priority 2003, dated 2012).
